{
  "source": "PubChem BioAssay AID624171",
  "about": "(National Center for Advancing Translational Sciences (NCATS), 2012)",
  "note": "Out of some 410,000 compounds screened, about 1,200 (0.29%) were called active. Inconclusive means that the source gave no clear call. Such entries were picked first, then a sample of the others. Calls follow the shape of the dose curve; as a rule, active = well fitted activation curve with a large enough effect; inconclusive = small, poorly fitted or top-dose-only effect; inactive = flat fitted curve, though single readings scatter. Where the call is inconclusive, the potency comes from a doubtful curve fit. Potency is read from the fitted curve at half-maximal effect; tags tell the direction and shape of the fitted curve.",
  "data": [
    {"assay": "qHTS of Nrf2 Activators; also: nearly all actives have a fitted effect of over 65% in size; as to activation: % of control where 0% means no effect", "conditions": "AREc32 ARE-luciferase reporter (MCF7-derived line), luminescence, 24 h; activation: at 46.1 µM (top of the series)", "method_in_brief": "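Cells of the AREc32 ARE-luciferase line are plated in OPTI-MEM containing 5% FBS and left overnight at 37 deg C. Compounds are pinned in, incubation continues 24 hr, and firefly luciferase signal is then measured.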", "values": [
      {"smiles": "O=C(COC(=O)c1ccccc1C(=O)c1ccc(Cl)c([N+](=O)[O-])c1)NC1CC1", "Potency": "inconclusive: 3.98 µM [activator, single point]"},
      {"smiles": "N/C(=N\\OC(=O)c1ccccc1Cl)c1cccc([N+](=O)[O-])c1", "Potency": "inconclusive: 2.24 µM [activator, partial curve, poor fit]"},
      {"smiles": "O=C1c2ccccc2NC(c2ccc(O)c(O)c2)N1c1ccccc1Cl", "note": "(centres undefined)", "Potency": "inconclusive: 12.6 µM [activator, single point]"},
      {"smiles": "Cc1cc(C)cc(NC(=O)N2CCC3(CC2)Oc2ccccc2C(=O)N3Cc2ccccc2F)c1", "activation": "inactive: 3.5%"},
      {"smiles": "Cc1ccccc1NC1=C(Cl)C(=O)N(C2CCCCC2)C1=O", "Potency": "inconclusive: 15.8 µM [activator, single point]"},
      {"smiles": "O=S(=O)(NCC(c1cccs1)S(=O)(=O)c1ccccc1)c1ccc(F)cc1", "note": "(centres undefined)", "Potency": "inconclusive: 11.2 µM [activator, partial curve]"},
      {"smiles": "Cc1cccc(NC(=S)NC(=O)c2ccc(Br)o2)c1", "Potency": "inconclusive: 8.91 µM [activator, partial curve]"},
      {"smiles": "Cc1csc(N=Cc2ccc([N+](=O)[O-])o2)n1", "Potency": "inconclusive: 20 µM [activator, single point]"},
      {"smiles": "S=C(Nc1ccc(Cl)cc1)c1nc2ccccc2s1", "activation": "inactive: 18.1%"},
      {"smiles": "C=C1C(=O)[C@]23C[C@H]1CCC2[C@]1(C)CCC[C@@](C)(C(=O)O)C1C[C@@H]3O", "note": "(some centres undefined)", "Potency": "inconclusive: 3.16 µM [activator, partial curve, poor fit]"},
      {"smiles": "COc1cc(/C=C(/C#N)c2nc3ccccc3c(=O)[nH]2)ccc1O", "Potency": "inconclusive: 11.2 µM [activator, partial curve, poor fit]"},
      {"smiles": "COC(=O)c1c(NC(=O)c2cc3ccccc3c(=O)o2)sc2c1CCCC2", "Potency": "active: 12.6 µM"},
      {"smiles": "CN(CCCNC(=O)c1cc2c(Cl)nc3ccccc3c2s1)Cc1ccccc1", "Potency": "inactive"},
      {"smiles": "O=[N+]([O-])c1ccc(CNc2ccc(Cl)cc2)s1", "Potency": "inconclusive: 25.1 µM [activator, single point]"},
      {"smiles": "COCCN(C(=O)COC(=O)/C=C/c1ccc2ccccc2n1)c1c(N)n(Cc2ccccc2)c(=O)[nH]c1=O", "Potency": "inconclusive: 20 µM [activator, single point]"},
      {"smiles": "O=C(NC1CCCc2ccccc21)c1n[nH]c(=O)c2ccccc12", "note": "(centres undefined)", "Potency": "inconclusive: 11.2 µM [activator, partial curve, poor fit]"},
      {"smiles": "O=[N+]([O-])c1cc(Br)c2nsnc2c1N1CCOCC1", "Potency": "inconclusive: 22.4 µM [activator, single point]"},
      {"smiles": "O=C(Nc1ccccc1N1CCN(C(=O)c2ccccc2)CC1)c1ccc([N+](=O)[O-])o1", "Potency": "inconclusive: 3.55 µM [activator, single point]"},
      {"smiles": "Fc1ccc(Br)cc1SCCc1ccncc1", "Potency": "inconclusive: 31.6 µM [activator, single point]"},
      {"smiles": "COc1ccc(-n2nc([N+](=O)[O-])c(=NCc3cccnc3)n2O)cc1", "activation": "inactive: 5.88%"},
      {"smiles": "CC1(C)OCC(COC(=O)Nc2cccnc2)([N+](=O)[O-])CO1", "activation": "inactive: -0.594%"},
      {"smiles": "COc1ccc(NC(=O)Nc2nc3ccccc3s2)cc1", "activation": "inactive: 5.14%"},
      {"smiles": "Cc1cc2oc(=O)sc2cc1NS(=O)(=O)c1cccc2cccnc12", "Potency": "inconclusive: 28.2 µM [activator, partial curve, poor fit]"},
      {"smiles": "O=C(CSc1nc(-c2ccccc2Cl)ns1)NCc1ccco1", "Potency": "inconclusive: 12.6 µM [activator, single point]"},
      {"smiles": "O=C1/C(=C/c2cccc(Cl)c2)SC(=S)N1CCC(=O)N1CCCCC1CCO", "note": "(centres undefined)", "Potency": "inconclusive: 11.2 µM [activator, partial curve]"},
      {"smiles": "O=C(CN(C1CCCCC1)S(=O)(=O)c1ccc(F)cc1)NCC1CCCO1", "note": "(centres undefined)", "Potency": "inconclusive: 3.55 µM [activator, single point]"},
      {"smiles": "O=C(c1ccc(S(=O)(=O)Cc2ccccc2Cl)c([N+](=O)[O-])c1)N1CCOCC1", "Potency": "inconclusive: 6.31 µM [activator, full curve]"},
      {"smiles": "O=C(Nc1ncccc1O)c1ccc(S(=O)(=O)Nc2ccccc2)cc1", "Potency": "active: 11.2 µM"},
      {"smiles": "Cc1csc(NC(=O)CSc2nc(=O)n(CCN(C)C)c3c2CCCC3)n1", "activation": "inactive: 0.508%"},
      {"smiles": "CC(=O)N1N=C(c2ccccc2OC(=O)/C=C/c2ccccc2)CC1c1ccccc1", "note": "(centres undefined)", "Potency": "inconclusive: 35.5 µM [activator, partial curve, poor fit]"},
      {"smiles": "C[C@H]1CCC[C@]2(C)C[C@H]3OC(=O)C(CN4CCCCCC4)[C@H]3C=C12", "note": "(some centres undefined)", "Potency": "inconclusive: 8.91 µM [activator, partial curve]"},
      {"smiles": "Fc1ccc(-c2csc(=Nc3cccc(C(F)(F)F)c3)n2Cc2ccc3c(c2)OCO3)cc1", "Potency": "inconclusive: 14.1 µM [activator, partial curve, poor fit]"},
      {"smiles": "CCn1c(-c2nn(C)c(C)c2Cl)n[nH]c1=S", "activation": "inactive: 0.372%"},
      {"smiles": "O=Cc1sc(Nc2ccccc2)nc1Cl", "Potency": "active: 14.1 µM"},
      {"smiles": "Cc1cc(C)n2nc(NCc3cccc(Br)c3)nc2n1", "activation": "inactive: -0.0156%"},
      {"smiles": "O=C(Oc1cccccc1=O)c1ccccc1", "Potency": "inconclusive: 22.4 µM [activator, single point]"},
      {"smiles": "Cc1cccn2c(=O)c(C(=O)NC(C)c3ccccc3)c(O)nc12", "note": "(centres undefined)", "activation": "inactive: -0.167%"},
      {"smiles": "CN(C)S(=O)(=O)c1ccc(C(=O)Nc2ccccc2[N+](=O)[O-])cc1", "Potency": "inconclusive: 25.1 µM [activator, single point]"},
      {"smiles": "CC1=C(C(=O)N(C)C)CC(CC(=O)NCCCN(C)C)C(=O)N1Cc1ccccc1", "note": "(centres undefined)", "activation": "inactive: -1.29%"},
      {"smiles": "COc1cc(NS(=O)(=O)c2ccc(NC(=O)C3CCCO3)cc2)nc(OC)n1", "note": "(centres undefined)", "activation": "inactive: -0.405%"},
      {"smiles": "CCOC(=O)C1=C(C)OC(N)=C(C#N)C1c1cc(SCC)oc1C", "note": "(centres undefined)", "Potency": "inconclusive: 22.4 µM [activator, single point]"},
      {"smiles": "c1cnc2cc(-c3ccsc3)ncc2c1", "Potency": "inconclusive: 12.6 µM [activator, partial curve, poor fit]"},
      {"smiles": "Cc1onc(-c2ccccc2)c1C(=O)O/N=C(\\N)c1ccc([N+](=O)[O-])o1", "Potency": "inconclusive: 22.4 µM [activator, single point]"},
      {"smiles": "O=C(C1=NNCC1c1ccccc1)C1OC1c1ccccc1", "note": "(centres undefined)", "Potency": "inconclusive: 15.8 µM [activator, single point]"},
      {"smiles": "COc1ccc(C(=O)CCc2ccccc2O)c(OC)c1", "Potency": "inconclusive: 7.94 µM [activator, partial curve, poor fit]"},
      {"smiles": "Cc1cc(C)c2oc(-c3ccc(C)c(NC(=S)NC(=O)/C=C/c4ccco4)c3)nc2c1", "Potency": "inconclusive: 20 µM [activator, single point]"},
      {"smiles": "O=C(c1ccco1)c1coc2c1cc(O)c1ccccc12", "Potency": "inconclusive: 2 µM [activator, partial curve, poor fit]"},
      {"smiles": "O=C(/C=C/Nc1ccccc1)c1ccccc1", "Potency": "active: 10 µM"},
      {"smiles": "CC(C)OC(=O)c1ccc(NCc2cc(O)ccc2O)cc1", "Potency": "active: 12.6 µM"},
      {"smiles": "Cc1c([N+](=O)[O-])cnc(Sc2ccccc2)c1[N+](=O)[O-]", "Potency": "inconclusive: 31.6 µM [activator, single point]"},
      {"smiles": "CCc1ccc(-c2nc(CN3CCC(C(=O)NCCN(CC)c4ccccc4)CC3)c(C)o2)cc1", "activation": "inactive: 0.475%"},
      {"smiles": "COc1ccc(S(=O)(=O)N2CCCCC2)cc1NC(=O)COC(=O)c1ccco1", "activation": "inactive: 0.102%"},
      {"smiles": "CC(=O)c1sc2nc(-c3ccc(C)cc3)c3c(c2c1N)CCCC3", "activation": "inactive: 0.513%"},
      {"smiles": "COc1ccc([N+](=O)[O-])cc1NC(=O)COC(=O)/C=C/c1ccco1", "Potency": "active: 11.2 µM"},
      {"smiles": "OCCCNc1nc(-c2ccc(Br)cc2)nnc1-c1ccc(Cl)cc1", "activation": "inactive: -0.196%"},
      {"smiles": "Cc1[nH]c(=S)sc1Cc1ccc(F)cc1", "activation": "inactive: 6.7%"},
      {"smiles": "COC(=O)c1sc2ncccc2c1OCc1ccc(Cl)cc1Cl", "Potency": "inconclusive: 35.5 µM [activator, single point]"},
      {"smiles": "O=[N+]([O-])c1ccccc1N=Nc1c(O)[nH]c2ccc(F)cc12", "Potency": "inconclusive: 2 µM [activator, full curve, poor fit]"},
      {"smiles": "Cc1ccnc(NS(=O)(=O)c2ccc(NC(=O)c3ccc([N+](=O)[O-])s3)cc2)n1", "Potency": "inconclusive: 3.55 µM [activator, partial curve, poor fit]"},
      {"smiles": "S=c1[nH]nc(-c2cc(-c3ccco3)[nH]n2)n1-c1ccccc1", "Potency": "inconclusive: 15.8 µM [activator, single point]"},
      {"smiles": "CCOc1ccc(CCNC(=O)c2cc(-c3ccccc3)c(N3CCOCC3)s2)cc1OCC", "activation": "inactive: 0.178%"},
      {"smiles": "CN1C2C=CC(=O)C1C1C(=O)N(c3ccccc3)C(=O)C12", "note": "(centres undefined)", "Potency": "inconclusive: 20 µM [activator, single point]"},
      {"smiles": "CCOc1ccc(Br)cc1-c1noc(-c2cccs2)n1", "Potency": "inconclusive: 2 µM [activator, full curve, poor fit]"},
      {"smiles": "COc1ccc(CC2c3cc(OC)c(OC)cc3CC[N+]2(C)CCC(=O)OCCCCCOC(=O)CC[N+]2(C)CCc3cc(OC)c(OC)cc3C2Cc2ccc(OC)c(OC)c2)cc1OC", "note": "(centres undefined)", "Potency": "inconclusive: 20 µM [activator, partial curve, poor fit]"},
      {"smiles": "CC(C)C[C@@H](C(=O)NCC1CCCO1)N1C(=O)N2CCc3c([nH]c4ccccc34)[C@@]2(C)C1=O", "note": "(some centres undefined)", "activation": "inactive: 4.76%"},
      {"smiles": "O=[N+]([O-])c1cc(S(=O)(=O)NCCN2CCOCC2)ccc1Sc1nnnn1-c1ccccc1", "Potency": "inconclusive: 3.55 µM [activator, single point]"},
      {"smiles": "COC(=O)C(=Cc1ccc(OCc2ccc([N+](=O)[O-])cc2)c(OC)c1)C(=O)OC", "Potency": "active: 8.91 µM"},
      {"smiles": "Cc1ccc2c(c1)C1CN(C)CCC1N2C(=S)NC(=O)c1ccc(Cl)cc1Cl", "note": "(centres undefined)", "Potency": "inconclusive: 22.4 µM [activator, single point]"},
      {"smiles": "O=C(COCc1cc(-c2cccs2)on1)Nc1cc(Cl)ccc1O", "Potency": "active: 3.55 µM"}
    ]}
  ]
}
